In the supplement of paper PMC8183993:
Counter-ions that a name gives are not always drawn. ± gives the standard deviation of the averaged measurements. In all, about 3,100 compounds were measured (“mean cytoplasmic OPP incorporation (global translation) relative to DMSO”: median about 100, lowest 2% from about 56 on). The list shows a part of the results.

These compounds were tested on U2OS (assay: mean cytoplasmic OPP incorporation (global translation) relative to DMSO (% of DMSO); higher = more protein synthesis). Conditions: 10 µM; 24 h.
Experimental: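 Primary image-based screen in U2OS cells: compounds at 10 uM for 24 h, then a 1 h o-propargyl-puromycin (OPP) pulse, click labelling, and high-throughput microscopy. Mean cytoplasmic OPP intensity and nuclei count were normalised to DMSO wells within each plate (DMSO = 100) and averaged over triplicate plates.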

| Structure (SMILES) | mean cytoplasmic OPP incorporation |
| --- | --- |
| O=C(O)CNC(=O)c1c(O)c2ccccc2n(Cc2ccccc2)c1=O | 100 ± 2.1 |
| c1ccc2nc(N3CCNCC3)ccc2c1 [Quipazine dimaleate salt] | 101 |
| c1ccc2nc(N3CCNCC3)ccc2c1 [Quipazine dimaleate] | 101 |
| C[N+](C)(C)CCCCCCCCCC[N+](C)(C)C [Decamethonium bromide] | 102 |
| CN1C[C@H](C(=O)N[C@]2(C)O[C@@]3(O)[C@@H]4CCCN4C(=O)[C@H](Cc4ccccc4)N3C2=O)C[C@@H]2c3cccc4[nH]cc(c34)C[C@H]21 [Dihydroergotamine tartrate] | 115 |
| CN1C[C@H](C(=O)N[C@]2(C)O[C@@]3(O)[C@@H]4CCCN4C(=O)[C@H](Cc4ccccc4)N3C2=O)C[C@@H]2c3cccc4[nH]cc(c34)C[C@H]21 [Dihydroergotamine mesylate] | 116 |
| O=C1NCN(c2ccccc2)C12CCN(CC1COc3ccccc3O1)CC2 (stereo not drawn) [Spiroxatrine] | 99.4 |
| C[N+]1(C)[C@@H]2CC[C@H]1C[C@@H](OC(=O)C(CO)c1ccccc1)C2 (stereo partly drawn) [Methylatropine nitrate] | 102 |
| CC(N)Cc1c[nH]c2ccc(OCc3cccs3)cc12 (stereo not drawn) [BW 723C86 hydrochloride] | 101 |
| C1=C2CCCN[C@H]2[C@@H]2C[C@H]1[C@H]1CCCCN1C2 [Aloperine] | 102 |
| CC(C)[C@@]1(NC(=O)[C@@H]2C[C@@H]3c4cccc5[nH]cc(c45)C[C@H]3N(C)C2)O[C@@]2(O)[C@@H]3CCCN3C(=O)[C@H](Cc3ccccc3)N2C1=O [Dihydroergocristine mesylate] | 112 |
| CN1CCC(c2c[nH]c3ccc(O)cc23)CC1 | 99.8 |
| CC(=O)C1=C(O)[C@@H]2[C@H]3c4c[nH]c5cccc(c45)C[C@H]3C(C)(C)N2C1=O [Cyclopiazonic acid] | 97.2 |
| CC(=O)C1=C(O)[C@@H]2[C@H]3c4c[nH]c5cccc(c45)C[C@H]3C(C)(C)N2C1=O [Cyclopiazonic Acid] | 98.5 |
| CCN[C@@H](C)Cc1cccc(C(F)(F)F)c1 [Dexfenfluramine hydrochloride] | 77.4 |
| CC(C)[C@@]1(O)[C@@H](OC(=O)c2ccc[nH]2)[C@@]2(O)[C@@]3(C)C[C@]4(O)O[C@@]5([C@H](O)[C@@H](C)CC[C@]35O)[C@@]2(O)[C@@]14C [Ryanodine] | 96.3 |
| C[N+](C)(C)CC#CCN1CCCC1=O [Oxotremorine M] | 83.4 |
| COc1ccc(CNC(=O)/C=C/c2ccc3[nH]cc(CCN(C)C)c3c2)cc1 | 106 |
| C[CH2][Hg][S]c1ccccc1C(=O)[O-].[Na+] [Thimerosal] | 15.5 |
| C[N+]1(C)CCOC(O)(c2ccc(-c3ccc(C4(O)C[N+](C)(C)CCO4)cc3)cc2)C1 (stereo not drawn) [Hemicholinium bromide] | 99.6 |
| COc1cc2c(cc1O)C(CCc1ccc(Cl)cc1)N(C)CC2 (stereo not drawn) | 103 |
| Nc1ccncc1 [4-Aminopyridine] | 101 ± 1.2 |
| COc1ccc(-n2nc(C(F)(F)F)cc2-c2ccc(Cl)cc2)cc1 | 104 |
| CN(C)Cc1c[nH]c2ccccc12 [Gramine] | 99.2 |
| CC(=O)N[C@H]1[C@@H](O[C@@H]2O[C@H](CC(O)[C@H]3O[C@@H](n4ccc(=O)[nH]c4=O)[C@H](O)[C@@H]3O)[C@H](O)[C@H](O)[C@H]2NC(=O)/C=C/CC(C)C)O[C@H](CO)[C@@H](N)[C@@H]1O (stereo partly drawn) [Tunicamycin] | 122 |

| Structure (SMILES) | mean cytoplasmic OPP incorporation |
| --- | --- |
| O=P(O)(O)Cc1ccccc1 [Benzylphosphonic acid] | 96.9 |
| C[C@]12CCC(=O)C=C1CC[C@@H]1[C@@H]2C(=O)C[C@]2(C)C(=O)CC[C@@H]12 [Adrenosterone] | 102 |
| CC1(C)CCCC(C)(C)N1[O] | 103 |
| CC(C(=O)OC1CC2CCC(C1)N2C)c1ccc(Br)cc1 (stereo not drawn) [PG-9 maleate] | 101 |
| O=C(O[C@H]1C[C@H]2CC[C@@H](C1)[N+]21CCCC1)C(O)(c1ccccc1)c1ccccc1 [Trospium chloride (Sanctura)] | 105 |
| Cc1ncc(CN2CC=C(c3ccccc3)CC2)c(N)n1 | 101 |
| Cc1[nH]c2ccc(O)cc2c1CCN [2-Methyl-5-hydroxytryptamine hydrochloride] | 104 |
| O=C1/C(=C/c2ccccc2)C[C@@]2(O)[C@H]3Cc4ccc(O)c5c4[C@@]2(CCN3CC2CC2)[C@H]1O5 [BNTX maleate] | 34.8 |
| COc1ccc(C(=O)N2CCCC2=O)cc1 [Aniracetam] | 97.5 ± 3.1 |
| O=Cc1cn(Cc2ccc(Cl)cc2)c2ccccc12 [Oncrasin 1] | 83.4 |
| NCC(CS(=O)(=O)O)c1ccc(Cl)cc1 (stereo not drawn) [Saclofen] | 104 |
| O=C(O)CCCc1ccc(N(CCCl)CCCl)cc1 [Chlorambucil] | 96.1 |
| CC[C@@H](C(N)=O)N1CCCC1=O [Levetiracetam] | 99.1 |
| O=c1[nH]c2ccccc2n1CCCN1CCC(n2c(=O)[nH]c3cc(Cl)ccc32)CC1 [Domperidone] | 110 ± 4.3 |
| O=C([O-])c1ccccc1-c1c2cc(Br)c(=O)cc-2oc2[c]([Hg+])c([O-])c(Br)cc12.[Na+].[Na+].[OH-] [Merbromin] | 101 |
| CC(=O)O[C@@]12CO[C@@H]1C[C@@H](O)[C@@]1(C)C(=O)[C@H](O)C3=C(C)[C@@H](O)C[C@@](O)([C@@H](OC(=O)c4ccccc4)[C@H]21)C3(C)C [10-DAB (10-Deacetylbaccatin)] | 113 |
| CC(C)[N+](C)(CCC(C(N)=O)(c1ccccc1)c1ccccc1)C(C)C [Isopropamide iodide] | 106 |
| C#C[C@]1(O)CC[C@H]2[C@@H]3CCC4=CC(=O)CC[C@]4(C)[C@H]3CC[C@@]21C [Ethisterone] | 105 ± 8.1 |
| CC(C)CC(N(C)C)C1(c2ccc(Cl)cc2)CCC1 (stereo not drawn) [Sibutramine HCl] | 95.1 |
| C=CCN1CC[C@]23c4c5ccc(O)c4O[C@H]2/C(=N/NC(=O)c2ccccc2)CC[C@@]3(O)[C@H]1C5 [Naloxone benzoylhydrazone] | 103 |
| N[C@@H](Cn1oc(=O)[nH]c1=O)C(=O)O [L-Quisqualic acid] | 98.3 |
| C[C@H](Cc1ccc(OCC(=O)O)cc1)NC[C@H](O)c1cccc(Cl)c1 | 99 |
| CC(=O)N(C)c1cccc(-c2ccnc3c(C(=O)c4cccs4)cnn23)c1 [Indiplon] | 92.7 |
| CC1(C)CC(O)CC(C)(C)N1[O] [Tempol (4-Hydroxy-TEMPO)] | 104 |
| CC1(C)CC(O)CC(C)(C)N1[O] | 110 |

| Structure (SMILES) | mean cytoplasmic OPP incorporation |
| --- | --- |
| S=C(NC1CCCCC1)N1CCC(c2cnc[nH]2)CC1 [Thioperamide maleate] | 105 |
| CN1[C@@H]2CC(O)C[C@H]1[C@@H]1O[C@@H]12 (stereo partly drawn) [Scopine] | 102 |
| COc1ccc2c(c1)[C@]13CCCC[C@@H]1[C@H](C2)N(C)CC3 [Dextromethorphan hydrobromide monohydrate] | 104 |
| Cc1cccc(C(C)c2c[nH]cn2)c1C (stereo not drawn) [Medetomidine hydrochloride] | 96.3 |
| Cc1cccc(C(C)c2c[nH]cn2)c1C (stereo not drawn) [Medetomidine HCl] | 96.7 |
| CN(C(=O)Cc1ccc(Cl)c(Cl)c1)[C@H](CN1CCCC1)c1ccccc1 [ICI-199,441 hydrochloride] | 111 |
| COC[C@H]1OC(=O)c2coc3c2[C@@]1(C)C1=C(C3=O)[C@@H]2CCC(=O)[C@@]2(C)C[C@H]1OC(C)=O [Wortmannin] | 104 ± 14 |
| Clc1cnc(Oc2ccc(Oc3ncc(Cl)cc3Cl)cc2)c(Cl)c1 | 117 |
| C=CC[C@]1(O)CC[C@H]2[C@@H]3CCC4=CC(=O)CCC4=C3C=C[C@@]21C [Altrenogest] | 101 |
| CN1C(=O)[C@]23CC4=CC=C[C@H](O)[C@H]4N2C(=O)[C@@]1(CO)SS3 [Gliotoxin] | 33.6 |
| C=C1[C@@H]2CC[C@H]3[C@]4(C)C[C@H](O[C@@H]5O[C@H](CO)[C@@H](OS(=O)(=O)O)[C@H](OS(=O)(=O)O)[C@H]5OC(=O)CC(C)C)C[C@@H](C(=O)O)[C@H]4CC[C@]3(C2)[C@@H]1O [Atractyloside potassium salt] | 102 |
| CC(Cc1ccc(O)cc1)NCC(O)c1cc(O)cc(O)c1 (stereo not drawn) [Fenoterol hydrobromide] | 95.5 |
| C/C(=C\c1csc(C)n1)[C@@H]1C[C@@H]2O[C@]2(C)CCC[C@H](C)[C@H](O)[C@@H](C)C(=O)C(C)(C)[C@@H](O)CC(=O)O1 [Epothilone B (EPO906)] | 92.3 |
| Cn1cnc(CCN)c1 [N _-Methylhistamine dihydrochloride] | 100 |
| CNCC(O)c1ccc(O)cc1 (racemic) [(+,-)-Synephrine] | 103 |
| C[C@]12CC[C@@H](O)C[C@@H]1CC[C@@H]1[C@@H]2CC[C@]2(C)C(=O)CC[C@@H]12 [Androsterone] | 97.1 |
| CCCCCCC[n+]1ccc(-c2cc[n+](CCCCCCC)cc2)cc1 [DHBP dibromide] | 96 |
| CO[C@@H]1[C@H](OC(=O)NC(=O)CCl)CC[C@]2(CO2)[C@H]1[C@@]1(C)O[C@@H]1CC=C(C)C | 83.6 |
| C=CCN1C[C@H](C)N([C@H](c2ccc(C(=O)N(CC)CC)cc2)c2cccc(OC)c2)C[C@H]1C | 102 |
| C=CCN1C[C@H](C)N([C@H](c2ccc(C(=O)N(CC)CC)cc2)c2cccc(O)c2)C[C@H]1C | 111 |
| O=[N+]([O-])O[C@@H]1CO[C@H]2[C@@H]1OC[C@@H]2O [Isosorbide mononitrate] | 110 |
| CC1=CC(=O)c2c(O)cccc2C1=O [Plumbagin] | 80.5 |
| Clc1ccc(C2=CCCC3CCC2N3)cn1 (stereo not drawn) [UB 165 fumarate] | 97.7 |
